Laboratory results reported in publication PMC10668032.
The list shows a part of the results. At the low end of the ranking the order means little.

Molecular target: SIX1 homeodomain (reference allele) (UniProt Q15475)
Assay: universal protein binding microarray
Conditions: Universal all-10-mer PBM (8x60K, AMADID 030236), 300 nM GST-tagged protein, Alexa Fluor 488 anti-GST; buffer, salt, pH and temperature not stated; high values mean tight binding; most listed sequences are background and not binding sites; double strand, one strand shown

Sequence	binding signal
TGCCTCCA	-0.131 E-score
ATTGACCG	-0.0783 E-score
ATTAGAAG	-0.0415 E-score
GGTCAAGA	-0.0244 E-score
CACCCCAC	0.263 E-score
GGGTAACC	0.018 E-score
GGCTGGTA	0.0382 E-score
CAAGGCGC	-0.185 E-score
TAAGTTCA	-0.0868 E-score
GGTAGACC	0.0487 E-score
GCTCAGAC	-0.188 E-score
AACGGTGA	0.00372 E-score
ATCCTGAG	0.203 E-score
CAATCCGC	0.29 E-score
ATCCTGCA	0.241 E-score
CAGACGCC	-0.0815 E-score
GTCACCTA	-0.289 E-score
CCTCTTCA	-0.0697 E-score
CTAGATGA	0.0531 E-score
CACCGCCC	0.232 E-score
CCCTCCGG	0.0883 E-score
CAATCTAC	-0.0217 E-score

Sequence	binding signal
ACGGGTCC	-0.261 E-score
CCTTGCCC	-0.0136 E-score
AGCGGTCA	-0.0652 E-score
CTATATGA	0.0957 E-score
AGTAACTG	-0.199 E-score
TCCAATAA	-0.0192 E-score
ACTAGTTC	-0.104 E-score
AGGGATTC	0.0688 E-score
CTCGAAGA	-0.0378 E-score
ACGCTCAT	-0.189 E-score
CCCTCAAA	-0.0731 E-score
CGCCCCAG	-0.0693 E-score
ACGCCCCG	0.019 E-score
CACGCCCA	-0.0229 E-score
AAAATCTC	-0.169 E-score
CGATGATC	0.379 E-score
CCATTCTC	-0.114 E-score
GCTGGTCA	-0.182 E-score
GCTTCGAC	-0.175 E-score
CTGCCTTA	-0.0395 E-score
CCGAGGTC	-0.145 E-score
GCCATCCA	-0.0916 E-score

Sequence	binding signal
CCCGCACA	0.164 E-score
CCTGTACC	-0.132 E-score
GGCCAGAC	-0.139 E-score
ATATCATA	0.442 E-score
ACGCGGGC	0.12 E-score
AACCCCAT	0.0437 E-score
CGTGGTAA	-0.0477 E-score
AAATGGCG	-0.128 E-score
GGCACACC	0.00434 E-score
ACCCGTTC	-0.143 E-score
CAGGAGCA	-0.188 E-score
CGTTGCAA	-0.111 E-score
CTCGTTTA	-0.0218 E-score
ATATATCA	0.4 E-score
ACACGTGT	-0.12 E-score
AGCGGGGC	-0.106 E-score
GATCAAAA	0.234 E-score
AACAAGAC	0.046 E-score
AGTAGCAG	-0.0638 E-score
CTCATACC	0.171 E-score
AGCCTTAC	-0.304 E-score
GCTTGTTA	-0.15 E-score

Sequence	binding signal
ACTTCTAT	0.0346 E-score
GAGCTCTA	0.0517 E-score
CAATAGAA	-0.23 E-score
ATTCTTAC	-0.152 E-score
CTTACGAA	-0.183 E-score
GTGCGGCA	-0.249 E-score
CACAGATG	-0.00132 E-score
CATTCGTA	0.0432 E-score
GGGGACGA	-0.0701 E-score
GGTAGGAC	-0.145 E-score
AATAATCA	0.00143 E-score
TCTCACCA	0.259 E-score
CCAGGGGA	0.222 E-score
ATATCAAA	0.374 E-score
CGCAACCC	-0.13 E-score
CTCTCCAA	-0.0598 E-score
AGTATCGC	0.435 E-score
AACATGAC	-0.262 E-score
GATCGAAA	0.115 E-score
ATGAACGC	-0.121 E-score
